Measurements as given in publication PMC10668032.
Some of the results follow. At the low end of the ranking the order means little.

These sequences were tested against SIX1-Q177R homeodomain (UniProt Q15475) (assay: universal protein binding microarray). Details: Universal all-10-mer PBM (8x60K, AMADID 030236), 300 nM GST-tagged protein, Alexa Fluor 488 anti-GST; buffer, salt, pH and temperature not stated; high values mean tight binding; most listed sequences are background and not binding sites; double strand, one strand shown.

| Sequence | binding signal |
| --- | --- |
| CAGCCATC | -0.145 E-score |
| AGAACAAC | -0.115 E-score |
| ACAATCCC | -0.024 E-score |
| GTTCGTCA | -0.183 E-score |
| CCATTTAC | 0.109 E-score |
| CACTTAAA | -0.0477 E-score |
| AGCTGCGG | -0.141 E-score |
| ACGCACAC | 0.307 E-score |
| CAAGCCGA | 0.139 E-score |
| ATGACTCA | -0.135 E-score |
| AAGGCCCT | -0.244 E-score |
| CTGGATAA | -0.117 E-score |
| TGAGCTCA | -0.183 E-score |
| GTGACTGA | -0.059 E-score |
| AGGTTAAC | 0.0373 E-score |
| ACTTAGCC | 0.0304 E-score |
| CAATGGTA | 0.00789 E-score |
| ACAATATG | 0.0623 E-score |
| GTTGGTCA | -0.0833 E-score |
| AGCGATCA | -0.112 E-score |
| AATAGGCA | -0.22 E-score |
| ATGCGTGG | -0.0228 E-score |
| ATGAGAAA | -0.35 E-score |
| GAATTTAA | -0.291 E-score |
| GGTATTAA | 0.0495 E-score |

| Sequence | binding signal |
| --- | --- |
| AACCAGCG | -0.168 E-score |
| CATCCGAC | 0.129 E-score |
| AACCCGCG | 0.229 E-score |
| CGTAGAAG | -0.136 E-score |
| AGATATGC | -0.128 E-score |
| CACACCGG | 0.418 E-score |
| CTGCAATC | -0.0149 E-score |
| AACCCAAA | -0.142 E-score |
| GTAGGACA | 0.146 E-score |
| ACGTGTCT | 0.337 E-score |
| CCTTCGGC | -0.166 E-score |
| CCTCCCGC | -0.0183 E-score |
| GCACATGC | -0.13 E-score |
| CAGGTGGC | -0.153 E-score |
| ACGTTCTA | -0.169 E-score |
| GGACTACA | 0.0514 E-score |
| AGCGAAAT | -0.168 E-score |
| GTATCAAA | 0.159 E-score |
| GACGGCCC | -0.287 E-score |
| AAGCCGCA | -0.225 E-score |
| ATAGTAGA | 0.0325 E-score |
| AAGCTGTG | 0.0339 E-score |
| ATTTAGGA | -0.0626 E-score |
| AAGTACTA | -0.0924 E-score |
| AATCTGCG | -0.0932 E-score |

| Sequence | binding signal |
| --- | --- |
| ACGCTCTG | -0.0845 E-score |
| AACGTAGT | -0.106 E-score |
| ATCTAATA | 0.0286 E-score |
| ATATGTGA | 0.0546 E-score |
| ACGTTAGA | -0.129 E-score |
| TATGGTGA | 0.0395 E-score |
| CCGGTTAC | 0.185 E-score |
| AAAGGCGC | -0.0781 E-score |
| GCAACCAC | -0.05 E-score |
| CCCGGTGC | 0.154 E-score |
| GGTTGTAC | 0.122 E-score |
| GCTGAGAC | -0.0687 E-score |
| ATGAAACG | -0.128 E-score |
| GAGGAATA | 0.0895 E-score |
| AGAAGGTG | 0.302 E-score |
| ATAGGGTG | 0.156 E-score |
| ATAGCGGG | 0.0254 E-score |
| GGCGGTAA | -0.0722 E-score |
| ATATAACG | -0.00936 E-score |
| GCGACCAA | -0.151 E-score |
| ACGTCAAC | -0.122 E-score |
| AGCGAACG | -0.145 E-score |
| GGATCCGA | 0.217 E-score |
| CATCCTAC | -0.0542 E-score |
| CACAGCGG | 0.134 E-score |

| Sequence | binding signal |
| --- | --- |
| AAGTGCAT | 0.0506 E-score |
| AATAAGAA | -0.236 E-score |
| AACGCAGC | -0.206 E-score |
| AGAGGAGC | -0.183 E-score |
| CGAGCCCG | -0.0428 E-score |
| CCCTGCAG | 0.185 E-score |
| ATGACGAA | -0.113 E-score |
| CCGAACAC | 0.424 E-score |
| CCCCAGAC | -0.0271 E-score |
| ACGCGAAA | -0.127 E-score |
| AGGGGGAA | 0.0648 E-score |
| CCGAGGCA | 0.0854 E-score |
| AATAAAAT | -0.2 E-score |
| CGAACCCA | 0.0995 E-score |
| GTACTTAA | 0.0231 E-score |
| GATTTTCC | -0.254 E-score |
| CGTCGGTC | -0.0956 E-score |
| TCCTGTAA | -0.0539 E-score |
| CCTTGGCG | 0.142 E-score |
| CCCACACC | 0.39 E-score |
| ACGCATGC | -0.0268 E-score |
| GCCATGAA | -0.169 E-score |
| GACCTAGA | -0.197 E-score |
| AATCAACG | -0.206 E-score |
| CAATACGC | -0.164 E-score |

| Sequence | binding signal |
| --- | --- |
| CCCTATTA | 0.0143 E-score |
| ATTGGTAG | -0.161 E-score |
| CGCGGAAC | 0.181 E-score |
| ACTGTCTA | -0.122 E-score |
| AGCACATA | -0.143 E-score |
| CGCCTGGA | -0.0463 E-score |
| CGAAACCC | 0.16 E-score |
| AAGGGCTA | -0.166 E-score |
| CTCACGCA | -0.0186 E-score |
| CGAAGACC | 0.0795 E-score |
| AAGCCATT | -0.204 E-score |
| TCACCTAA | -0.0387 E-score |
| GCCCGAAA | -0.0508 E-score |
| CCAAAGCA | -0.0258 E-score |
| ATTAAGAC | -0.172 E-score |
| TCAATAGA | -0.222 E-score |
| AGAAAGAA | -0.146 E-score |
| CACCGCAG | 0.241 E-score |
| ATGTAGGG | 0.0154 E-score |
| ACGCAGAC | -0.0606 E-score |
| ACGATACC | 0.357 E-score |
| AGATCCGG | -0.0104 E-score |
| CGCCTAAC | -0.0718 E-score |
| AGCTGCTA | -0.0646 E-score |
| AAACAAGT | -0.223 E-score |

| Sequence | binding signal |
| --- | --- |
| GATGCACC | 0.126 E-score |
| AAAGGATC | 0.0283 E-score |
| CTTTGCGA | 0.063 E-score |
| GAGCTAAC | -0.157 E-score |
| CGGAGAGC | -0.154 E-score |
| CGCCGCGC | -0.0027 E-score |
| CGATCGCG | -0.179 E-score |
| GAGGCAAC | -0.125 E-score |
| GCGACGTA | -0.0555 E-score |
| ATAAAAGG | -0.0509 E-score |
| ACTGGAGG | 0.00645 E-score |
| AGGAAACA | 0.115 E-score |
| CAGATGAG | -0.0192 E-score |
| ACATCAGC | -0.23 E-score |
| AAAAAATC | -0.124 E-score |
| CCATGAAG | 0.015 E-score |
| CGACCTCG | 0.137 E-score |
| ACTGTTTA | -0.13 E-score |
| CTACTAGA | 0.00643 E-score |
| ACCAGGCA | 0.151 E-score |
| TCATCCCA | -0.129 E-score |
| CAAAAGTC | -0.232 E-score |
| ATCGCAGG | -0.0803 E-score |
| CTAAACGC | -0.167 E-score |
| CTAATTTC | -0.156 E-score |

| Sequence | binding signal |
| --- | --- |
| ACCCTGTC | 0.0909 E-score |
| CTACATTC | -0.271 E-score |
| ACACGAAG | 0.346 E-score |
| CGGGCAGC | -0.028 E-score |
| ACAAAGAC | -0.0879 E-score |
| CGTGCAGA | -0.0542 E-score |
| GACATGAA | -0.207 E-score |
| AACTTTTC | -0.0854 E-score |
| ACAACAGG | -0.159 E-score |
| ACCAGGAC | 0.107 E-score |
| AACGGGGA | -0.021 E-score |
| ACTCGGTC | 0.00537 E-score |
| ACCCGGTG | 0.36 E-score |
| CTTTGTCA | 0.0588 E-score |
| GCCGTGCA | 0.0869 E-score |
| CGCGCACA | 0.138 E-score |
| GACACTTA | 0.383 E-score |
| AGCCACAG | 0.103 E-score |
| CAGGTCCC | 0.113 E-score |
| AGGACCAC | -0.177 E-score |
| AAACGCTT | -0.171 E-score |
| CGAGATGA | -0.0477 E-score |
